This passage reports cell count results from the supplement of paper PMC4604168 (melanoma cell lines).

Some of the results follow. Repeats are few or missing, and single values can be far off.
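Note: cells treated in 1,536-well plates, then fixed and DAPI-stained, with nuclei counted from automated high-throughput microscope images.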

For this assay, the system named is A2058. The experiment in a line: cell count relative to DMSO control; melanoma cells; higher = more viable cells. The conditions noted are these: library dose: standard library concentration; 72 h.
`O=C(Nc1cc(C(F)(F)F)cc(C(F)(F)F)c1)c1cc(Cl)ccc1O` + Cc1cn(-c2cc(NC(=O)c3ccc(C)c(Nc4nccc(-c5cccnc5)n4)c3)cc(C(F)(F)F)c2)cn1 [nilotinib] (first compound 0.08 µM, partner dose 1 µM) gave a cell count of 102%.

`Cc1cc(N2CCOCC2)cc2[nH]c(-c3c(NC[C@@H](O)c4cccc(Cl)c4)cc[nH]c3=O)nc12` + Cn1cncc1[C@@](N)(c1ccc(Cl)cc1)c1ccc2c(c1)c(-c1cccc(Cl)c1)cc(=O)n2C [tipifarnib] (first compound 1 µM, partner dose 0.05 µM): the cell count was determined as 71%. Next, `Cn1nnc2c(C(N)=O)ncn2c1=O` [temozolomide] + NCC(=O)Nc1ccc(-n2nc(C(F)(F)F)cc2-c2ccc3c(ccc4ccccc43)c2)cc1 [OSU03012] (first compound 10 µM, partner dose 5 µM): 57.7%. Next, `O=C(Nc1cc(C(F)(F)F)cc(C(F)(F)F)c1)c1cc(Cl)ccc1O` + C#Cc1cccc(Nc2ncnc3cc(OCCOC)c(OCCOC)cc23)c1 [erlotinib] (first compound 0.08 µM, partner dose 4 µM): 80.9%; `O=C(O)[C@@H]1[O][Sb](=[O])([O][Sb]2(=[O])[O][C@H]([C@H](O)CO)[C@H](O)[C@H](C(=O)O)[O]2)[O][C@H]([C@H](O)CO)[C@@H]1O` (some centres not stated) [stibogluconate] + Cc1cc(N2CCOCC2)cc2[nH]c(-c3c(NC[C@@H](O)c4cccc(Cl)c4)cc[nH]c3=O)nc12 [BMS536924] (first compound 10 µM, partner dose 1 µM): 100%. The result for `O=C(Nc1cc(C(F)(F)F)cc(C(F)(F)F)c1)c1cc(Cl)ccc1O` + C=CCNC1=C2C[C@@H](C)C[C@H](OC)[C@H](O)[C@@H](C)/C=C(\C)[C@H](OC(N)=O)[C@@H](OC)/C=C\C=C(/C)C(=O)NC(=CC1=O)C2=O [Tanespimycin] (first compound 0.08 µM, partner dose 0.01 µM) reads 96.3%; that for `O=C(O)c1ccc2c(c1)nc(Nc1cccc(Cl)c1)c1ccncc12` + CCN(CC)CCCCNc1ncc2cc(-c3cc(OC)cc(OC)c3)c(NC(=O)NC(C)(C)C)nc2n1 [PD173074] (first compound 2 µM, partner dose 0.5 µM), 87.7%.

Turning to `O=C(O)c1ccc2c(c1)nc(Nc1cccc(Cl)c1)c1ccncc12` + NCC(=O)Nc1ccc(-n2nc(C(F)(F)F)cc2-c2ccc3c(ccc4ccccc43)c2)cc1 [OSU03012] (first compound 2 µM, partner dose 5 µM), the cell count was 82.1%. The compound `O=C(Nc1ccccc1)c1cc([N+](=O)[O-])ccc1Cl` + COc1ccc2c(c1)CCC1C2CCC2(C)C(NCCCCCCN3C(=O)C=CC3=O)CCC12 [U73122] (first compound 10 µM, partner dose 2 µM) gave a cell count of 75.5%. Next, `O=C(O)[C@@H]1[O][Sb](=[O])([O][Sb]2(=[O])[O][C@H]([C@H](O)CO)[C@H](O)[C@H](C(=O)O)[O]2)[O][C@H]([C@H](O)CO)[C@@H]1O` (some centres not stated) [stibogluconate] + Nc1ncn([C@H]2C[C@H](O)[C@@H](CO)O2)c(=O)n1 [decitabine] (first compound 10 µM, partner dose 0.5 µM): 86.6%; `O=C(Nc1cc(C(F)(F)F)cc(C(F)(F)F)c1)c1cc(Cl)ccc1O` + COc1cc(Nc2ncc(F)c(Nc3ccc4c(n3)NC(=O)C(C)(C)O4)n2)cc(OC)c1OC [Tamatinib] (first compound 0.08 µM, partner dose 2 µM): 68.8%. The result for `O=C(Nc1cc(C(F)(F)F)cc(C(F)(F)F)c1)c1cc(Cl)ccc1O` + CC(C)(C)c1cnc(CSc2cnc(NC(=O)C3CCNCC3)s2)o1 [SNS-032] (first compound 0.08 µM, partner dose 0.05 µM) reads 111%. Take `O=C(O)[C@@H]1[O][Sb](=[O])([O][Sb]2(=[O])[O][C@H]([C@H](O)CO)[C@H](O)[C@H](C(=O)O)[O]2)[O][C@H]([C@H](O)CO)[C@@H]1O` (some centres not stated) [stibogluconate] + N#Cc1c(O)c2c(-c3ccc(-c4ccccc4O)cc3)csc2[nH]c1=O [A769662] (first compound 10 µM, partner dose 10 µM): the cell count was found to be 124%.

`O=C(O)[C@@H]1[O][Sb](=[O])([O][Sb]2(=[O])[O][C@H]([C@H](O)CO)[C@H](O)[C@H](C(=O)O)[O]2)[O][C@H]([C@H](O)CO)[C@@H]1O` (some centres not stated) [stibogluconate] + O=c1cc(-c2cccc3c2Sc2ccccc2S3)oc(N2CCOCC2)c1 [KU55933] (first compound 10 µM, partner dose 5 µM) had a cell count of 75%.

Turning to `O=C(O)[C@@H]1[O][Sb](=[O])([O][Sb]2(=[O])[O][C@H]([C@H](O)CO)[C@H](O)[C@H](C(=O)O)[O]2)[O][C@H]([C@H](O)CO)[C@@H]1O` (some centres not stated) [stibogluconate] + COC(=O)c1sccc1S(=O)(=O)Nc1ccc(Nc2ccccc2)cc1OC [GSK0660] (first compound 10 µM, partner dose 5 µM), the cell count was found to be 111%.

As for `O=C(O)c1ccc2c(c1)nc(Nc1cccc(Cl)c1)c1ccncc12` + Cn1c(Nc2ccc(C(F)(F)F)cc2)nc2cc(Oc3ccnc(-c4ncc(C(F)(F)F)[nH]4)c3)ccc21 [CHIR265] (first compound 2 µM, partner dose 0.4 µM), the cell count is 57.7%. The compound `O=C(O)c1ccc2c(c1)nc(Nc1cccc(Cl)c1)c1ccncc12` + c1cc(-c2cnn3cc(-c4ccc(OCCN5CCCCC5)cc4)cnc23)ccn1 [Dorsomorphin] (first compound 2 µM, partner dose 2 µM) displayed a cell count of 72.7%.

`O=C(Nc1cc(C(F)(F)F)cc(C(F)(F)F)c1)c1cc(Cl)ccc1O` + Nc1ccn([C@@H]2O[C@H](CO)[C@@H](O)C2(F)F)c(=O)n1 [gemcitabine] (first compound 0.08 µM, partner dose 0.002 µM) yielded a cell count of 63.7%. Next, `Cn1nnc2c(C(N)=O)ncn2c1=O` [temozolomide] + CCc1ccc(CCOc2ccc(CC3SC(=O)NC3=O)cc2)nc1 [pioglitazone] (first compound 10 µM, partner dose 10 µM): 50.4%; `O=C(O)c1ccc2c(c1)nc(Nc1cccc(Cl)c1)c1ccncc12` + CO[C@@H]1[C@H](N(C)C(=O)c2ccccc2)C[C@H]2O[C@]1(C)n1c3ccccc3c3c4c(c5c6ccccc6n2c5c31)C(=O)NC4 [Midostaurin] (first compound 2 µM, partner dose 0.4 µM): 48.5%; `Cc1cc(N2CCOCC2)cc2[nH]c(-c3c(NC[C@@H](O)c4cccc(Cl)c4)cc[nH]c3=O)nc12` + CN(NC(=O)CC(=O)NN(C)C(=S)c1ccccc1)C(=S)c1ccccc1 [STA4783] (first compound 1 µM, partner dose 0.03 µM): 14.2%. `O=C(Nc1cc(C(F)(F)F)cc(C(F)(F)F)c1)c1cc(Cl)ccc1O` + c1cc(-c2cnn3cc(-c4ccc(OCCN5CCCCC5)cc4)cnc23)ccn1 [Dorsomorphin] (first compound 0.08 µM, partner dose 2 µM) had a cell count of 94.2%.

`O=C(O)c1ccc2c(c1)nc(Nc1cccc(Cl)c1)c1ccncc12` + OCc1c[nH]c2ccccc12 [Indole-3-carbinol] (first compound 2 µM, partner dose 4 µM) returned a cell count of 86.3%. The result for `O=C(Nc1ccccc1)c1cc([N+](=O)[O-])ccc1Cl` + c1cc(-c2cnn3cc(-c4ccc(OCCN5CCCCC5)cc4)cnc23)ccn1 [Dorsomorphin] (first compound 10 µM, partner dose 2 µM) reads 85.4%; that for `O=C(O)c1ccc2c(c1)nc(Nc1cccc(Cl)c1)c1ccncc12` + OCCn1cc(-c2cnc3nnn(Cc4ccc5ncccc5c4)c3n2)cn1 [PF04217903] (first compound 2 µM, partner dose 5 µM), 98.4%; that for `Cc1cc(N2CCOCC2)cc2[nH]c(-c3c(NC[C@@H](O)c4cccc(Cl)c4)cc[nH]c3=O)nc12` + O=C(Nc1cccc(Cl)c1)Nc1ncc(CCNc2ncnc3ccsc23)s1 [SNS314] (first compound 1 µM, partner dose 0.004 µM), 89.9%. The result for `Cn1nnc2c(C(N)=O)ncn2c1=O` [temozolomide] + Cn1cncc1[C@@](N)(c1ccc(Cl)cc1)c1ccc2c(c1)c(-c1cccc(Cl)c1)cc(=O)n2C [tipifarnib] (first compound 10 µM, partner dose 0.05 µM) reads 35.2%.

With `Cc1cc(N2CCOCC2)cc2[nH]c(-c3c(NC[C@@H](O)c4cccc(Cl)c4)cc[nH]c3=O)nc12` + COc1cc2c(Oc3ccc4[nH]c(C)cc4c3F)ncnc2cc1OCCCN1CCCC1 [cediranib] (first compound 1 µM, partner dose 2 µM), the cell count worked out at 89.3%. Regarding `O=C(Nc1cc(C(F)(F)F)cc(C(F)(F)F)c1)c1cc(Cl)ccc1O` + COc1ccc(-c2ccc3c(N4CCOCC4)nc(N4C[C@@H](C)O[C@@H](C)C4)nc3n2)cc1CO [KU0063794] (first compound 0.08 µM, partner dose 0.1 µM), the cell count turned out to be 90.9%. The compound `O=C(O)[C@@H]1[O][Sb](=[O])([O][Sb]2(=[O])[O][C@H]([C@H](O)CO)[C@H](O)[C@H](C(=O)O)[O]2)[O][C@H]([C@H](O)CO)[C@@H]1O` (some centres not stated) [stibogluconate] + NC(=O)Nc1cc(-c2cccc(F)c2)sc1C(=O)N[C@H]1CCCNC1 [AZD7762] (first compound 10 µM, partner dose 0.1 µM) returned a cell count of 72%. Consider `Cc1cc(N2CCOCC2)cc2[nH]c(-c3c(NC[C@@H](O)c4cccc(Cl)c4)cc[nH]c3=O)nc12` + CC(C)CCN1c2nc(Nc3cc(F)c(O)c(F)c3)ncc2N(C)C(=O)C1C [BID1870] (first compound 1 µM, partner dose 1 µM), for which the cell count turned out to be 85.6%. The result for `O=C(O)c1ccc2c(c1)nc(Nc1cccc(Cl)c1)c1ccncc12` + CCCS(=O)(=O)Nc1ccc(F)c(C(=O)c2c[nH]c3ncc(Cl)cc23)c1F [PLX4720] (first compound 2 µM, partner dose 0.4 µM) reads 125%.
